Some of the results follow. At the low end of the ranking the order means little.
Each sequence was assayed on T1, GST-NbGlk1(82-244) (assay: protein-binding microarray). Settings: NbGlk1 is a Golden2-like transcription factor of Nicotiana benthamiana; high values mean tight binding; most listed sequences are background and not binding sites; double strand, one strand shown.
T1 sequence: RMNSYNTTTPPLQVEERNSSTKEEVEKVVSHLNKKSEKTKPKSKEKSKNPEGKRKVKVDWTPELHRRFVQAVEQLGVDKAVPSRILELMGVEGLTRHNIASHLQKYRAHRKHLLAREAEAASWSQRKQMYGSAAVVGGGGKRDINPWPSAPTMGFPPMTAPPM
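Also: rank-based score ranging −0.5 to +0.5 with E above 0.45 taken as significant binding.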

Sequence	binding signal [E-score]
ACAGGCGT	-0.25
ATACGGTC	0.0679
ACTGAACG	-0.0512
CACAGGGC	-0.244
ACTTTCCC	0.0587
AAAGTCCG	-0.092
ATTCTTTG	0.298
ACATTCGA	0.0193
AACTAAAA	0.195
AGCTATAA	0.0236
ATAAACAC	0.0306
AAGAACAA	0.0422
AACCGGCT	-0.23
AGGAGTAT	-0.00811
AGCAGCAA	-0.0389
ATAAATAA	0.13
AGTAGCAC	-0.111
AATGGGAA	-0.00384
ACCTCCGA	-0.273
CAAATCCA	0.379
ACTGTTAT	0.189
ACGAATCC	0.361
AAGTGGGA	-0.0195
CAGCCTAC	-0.0834
ACTCTCAC	-0.0855

Sequence	binding signal [E-score]
ATGAACAC	-0.0347
ACTCACAG	-0.118
AATCATGA	0.254
ATGCGTTA	-0.0927
AGCGCCGC	-0.225
AGGCTGGA	-0.135
AACGTGCT	-0.0691
ATAGCCTA	-0.0634
ACATCATA	0.0465
AATGTTTG	0.0213
ACAAATAT	0.313
AGCATTCG	-0.154
ACATACAT	0.0622
ATCTCTAC	0.297
ACAATAGA	0.146
AACGTGCA	-0.0641
ACGCTCGC	-0.102
ACGTGATG	-0.135
ATGCGGTA	-0.0325
AGAACCAA	-0.0688
ATCAGGCC	-0.059
CACGAATA	0.0913
AGCTATCA	-0.131
AAGCGTCT	-0.113
AACATGTT	0.0631

Sequence	binding signal [E-score]
AAAAGCCA	-0.142
CAAGTGTG	-0.165
AGCGTCCG	-0.218
ACAGTTAT	0.1
ACCTTGCC	-0.15
CAAAACGG	-0.0892
ACCTTAGA	-0.0815
ACATCCTC	-0.131
AATAGCCA	-0.124
CACCCGGC	-0.182
CACCGTTA	0.0612
AATTCGCA	0.264
AGCGTTGA	-0.0401
AGACCGCA	-0.124
ACCTCCTG	-0.16
AGCGGCAG	-0.245
ATTCACCA	0.136
ATAGACCG	-0.261
ATGTTAAC	0.111
AAACTTGT	-0.0178
ATGAGTTA	-0.103
AAGACGCT	-0.107
AGCAGGCT	-0.21
ATGACTTA	-0.177
ATGGAAGG	-0.187

Sequence	binding signal [E-score]
ATTCTACA	0.147
AGGTCAAC	-0.135
ACGTAGAT	0.221
AAGTGCAA	0.109
ATACAATA	0.174
AAAGATCG	0.278
CACGGTAC	0.00194
ATAAGAAG	0.0925
CACTAAGA	0.0822
AGGCCATA	-0.122
ACCCCATC	-0.163
ACCTCCAA	-0.166
ATAGGTTC	-0.0486
CACCGGAA	0.00917
ATGTTCGA	-0.0389
ACGGGAGC	-0.181
AAGTAGTG	-0.105
AAGTGGCA	-0.148
AATCCAGT	0.398
ACACTTTC	-0.0585
AAAAAGCG	0.0737
ACCAAAAG	-0.141
ACATGTCG	-0.0883
ATACCACG	0.063
ATCCCGAG	0.211

Sequence	binding signal [E-score]
AGGCCTAG	-0.198
AGCTTAAG	-0.0518
CACTGTGA	-0.0936
ACTTCCAC	-0.162
CAACTTGC	-0.0764
AGTTCTCA	-0.153
CAATGCAA	0.0982
AGTACACT	-0.143
AGGATACG	0.357
ACTGCACT	-0.148
CAGCGAAG	-0.039
CAACCTCG	-0.0426
ATGATCCC	0.0692
AGAGCAGG	-0.266
AGCCCCAA	-0.324
AACGCAGG	-0.224
ATACCCTC	0.0749
ACTAACGA	-0.0223
ACCAACAT	0.00343
AGCTTACA	-0.171
AACGATTA	0.1
AACGAAAC	0.111
AGCTTTGA	-0.0255
AAGCACTG	-0.0787
ACCTACGC	-0.208

Sequence	binding signal [E-score]
ATTTAACC	0.0755
ACACAAGG	-0.123
ACGATCAG	0.0965
AAGATAGC	0.128
ATATGACG	0.135
ACGACCCC	-0.327
AACTGAGC	-0.173
ATGCCAAT	0.0104
AGAAAGTA	0.159
ACGTCGCG	-0.0824
AAACCCCG	-0.207
ATCCACCA	0.188
AATGTGGG	-0.00653
AGGTATTG	0.0812
ATTGTCGC	0.035
CACGGATC	0.18
AGGTATTC	-0.114
AGGCTCTC	-0.217
ATCCCTTG	0.14
AGATTCCC	0.493
ACATTGCA	-0.0416
ATCACGTC	0.0689
ACCGACAT	0.061
ATGATATG	0.251
AAACGTAC	-0.0828

Sequence	binding signal [E-score]
ATTTCCAA	0.36
AAGGTACG	-0.191
AATCAGGT	0.32
ACCGCTCA	-0.0566
CACATCCA	0.00498
AATGTAGG	0.0396
AATAACGA	0.125
AGCCGCGG	-0.0482
AAAATTGT	0.0701
ATGCACGA	-0.0751
ATCCCAAA	0.229
AGGCTCAA	-0.218
ATAGCACG	-0.014
AGAGTCAC	-0.241
AGCTCGAA	-0.125
ATCATGGA	0.207
ATTGCCAG	0.201
ATGGTAAT	0.305
CACGCGTA	0.0951
ACCTTCAA	-0.13
AATCCGCG	0.396
ATAGAAAA	0.177

From publication PMC5836133
